# Data published in the supplement of paper PMC12217912.
# Some of the results follow. The full chains were built here from the parent and the listed change. Inactive controls read about 0.05.
# B1: TEV protease; numbered along this chain (parent)
# chain: MGESLFKGPRDYNPISSSICHLTNESDGHTTSLYGIGFGPFIITNKHLFRRNNGTLVVQSLHGVFKVKDTTTLQQHLVDGRDMIIIRMPKDFPPFPQKLKFREPQREERICLVTTNFQTKSMSSMVSDTSCTFPSGDGIFWKHWIQTKDGQCGSPLVSTRDGFIVGIHSASNFTNTNNYFTSVPKNFMELLTNQEAQQWVSGWRLNADSVLWGGHKVFMVKPEEPFQPVKEATQL
# Variants of: B1
# Assay: raw area under fraction-flipped curve 0-4 h after induction (AUC4h, not background-subtracted), DNA-recorder readout of cleavage of the substrate (dimensionless); higher = more cleavage of the substrate by the protease variant
# Details: temperature: 34 °C; time window: 0-4 h after rhamnose induction
# 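Note: Bxb1 expression induced with 0.2% (w/v) L-rhamnose at OD600 near 0.5, cultures sampled hourly, flipped fraction per protease–substrate barcode pair counted by paired-end Illumina sequencing.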
Variant,area with substrate ENDYFQS,area with substrate ENFYFQS,area with substrate ENEYFQS,area with substrate ENGYFQS,area with substrate ENHYFQS,area with substrate ENNYFQS,area with substrate ENTYFQS,area with substrate ENVYFQS,area with substrate ENIYFQS,area with substrate ENKYFQS
MGESLFKGPRDYNPISSSICHLTNESDGHTTSLYGIGFGPFIITNKHLFRRNNGTLVVQSLHGVFKVKDTTTLQQHLVDGRDMIIIRMPKDFPPFPQKLKFREPQREERICLVTTNFQTKSMSSMVSDTSCTFPSGDGIFWKHWIQTKDGQCGSPLVSTRDGFIVGIHSASNFTNTNNYFTSVPKNFMELLTNQEAQQWVSGWRLNAASVLWGGHKVFMVKPEEPFQPVKEATQL [D208A],0.0598,0.0761,–,–,–,–,–,–,–,–
MGESLFKGPRDYNPISSSICHLTNESDGHTTSLYGIGFGPFIITNKHLFRRNNGTLVVQSLHGVFKVKDTTTLQQHLVDGRDMIIIRMPKDFPPFPQKLKFREPQREERICLVTTNFQTKSMSSMVSDTSCTFPSGDGIFWKHWIQTKDGQCGSPLVSTRDGFIVGIHSASNFTNTNNYFTSVPKNFMELLTNQEAQQWVSGWRLNADSVLWGGTKVFMVKPEEPFQPVKEATQL [H215T],0.0575,–,0.0557,0.0594,0.0595,0.0689,0.0678,0.0657,–,–
MGESLFKGPRDYNPISSSICHLTNESDGHTTSLYGIGFGPFIITNKHLFRRNNGTLVVQSLHGVFKVKDTTTLQQHLVDGRDMIIIRMPKDFPPFPQKLKFREPQREERICLVTTNFQTKSMSSMVSDTSCTFPSGDGIFWKHWIQTKDGQCGSPLVSTRDGFIVGIHSASNFTNTNNYFTSVPKNFMELLTNQEAQQWVSGWRLNADSVLWGGHKVCMVKPEEPFQPVKEATQL [F218C],0.0533,0.0673,–,0.0656,0.0636,0.0608,0.0376,–,0.0962,0.0816
MGESLFKGPRDYNPISSSICHLTNESDGHTTSLYGIGFGPFIITNKHLFRRNNGTLVVQSLHGVFKVKDTTTLQQHLVDGRDMIIIRMPKDFPPFPQKLKFREPQREERICLVTTNFQTKSMSSMVSDTSCTFPSGDGIFWKHWIQTKDGQCGSPLVSTRDGFIVGIHSASNFTNTNNYFTSVPKNFMELLTNQEAQQWVSGWRLNADSVLWGGHKVFMFKPEEPFQPVKEATQL [V220F],0.0633,0.042,–,0.0574,0.0861,–,0.0781,0.084,0.0877,0.0487
MGESLFKGPRDYNPISSSICHLTNESDGHTTSLYGIGFGPFIITNKHLFRRNNGTLVVQSLHGVFKVKDTTTLQQHLVDGRDMIIIRMPKDFPPFPQKLKFREPQREERICLVTTNFQTKSMSSMVSDTSCTFPSGDGIFWKHWIQTKDGQCGSPLVSTRDGFIVGIHSASNFTNTNNYFTSVPKNFMELLTNQEAQQWVSGWRLNADSVLWGGHKVFMVKPEEPFQPVKEAAQL [T233A],0.0445,0.0731,–,0.0656,0.0615,–,–,–,–,–
MGESLFKGPRDYNPISSSICHLTNESDGHTTSLYGIGFGPFIITNKHLFRRNNGTLVVQSLHGVFKVKDTTTLQQHLVDGRDMIIIRMPKDFPPFPQKLKFREPQREERICLVTTNFQTKSMSSMVSDTSCTFPSGDGIFWKHWIQTKDGQCGSPLVSTRDGFIVGIHSASNFTNTNNYFTSVPKNFMELLTNQEAQQWVSGWRLNADSVLWGGHKVFMVKPEEPFQPVKEAFQL [T233F],0.061,0.0717,0.0612,0.066,0.0613,–,–,0.0691,0.0949,–
MGESLFKGPRDYNPISSSICHLTNESDGHTTSLYGIGFGPFIITNKHLFRRNNGTLVVQSLHGVFKVKDTTTLQQHLVDGRDMIIIRMPKDFPPFPQKLKFREPQREERICLVTTNFQTKSMSSMVSDTSCTFPSGDGIFWKHWIQTKDGQCGSPLVSTRDGFIVGIHSASNFTNTNNYFTSVPKNFMELLTNQEAQQWVSGWRLNADSVLWGGHKVFMVKPEEPFQPVKEAVQL [T233V],0.0746,0.0593,–,0.0594,–,–,–,0.0803,–,–
MGESLCKGPRDYNPISSSICHLTNESDGHTTSLYGIGFGPFIITNKHLFRRNNGTLVVQSLHGVFKVKDTTTLQQHLVDGRDMIIIRMPKDFPPFPQKLKFREPQREERICLVTTNFQTKSMSSMVSDTSCTFPSGDGIFWKHWIQTKDGQCGSPLVSTRDGFIVGIHSASNFTNTNNYFTSVPKNFMELLTNQEAQQWVSGWRLNADSVLWGGHKVFMVKPEEPFQPVKEATQL [F6C],–,–,0.0621,–,0.0588,0.0545,–,–,–,–
MGESLFKGPRDYNPISSSICHLTNESDGHTTSLYGIGFGPFIITNKHLFRRNNGTLVVQILHGVFKVKDTTTLQQHLVDGRDMIIIRMPKDFPPFPQKLKFREPQREERICLVTTNFQTKSMSSMVSDTSCTFPSGDGIFWKHWIQTKDGQCGSPLVSTRDGFIVGIHSASNFTNTNNYFTSVPKNFMELLTNQEAQQWVSGWRLNADSVLWGGHKVFMVKPEEPFQPVKEATQL [S60I],–,–,0.0525,0.0253,–,–,–,0.0636,–,0.0533

# Same assay, conditions: temperature: 34 °C; time window: 0-4 h after rhamnose induction
Variant,area with substrate ENMYFQS,area with substrate ENPYFQS,area with substrate ENQYFQS,area with substrate ENWYFQS,area with substrate ENSYFQS,area with substrate ENYYFQS,area with substrate ENRYFQS
MGESLFKGPRDYNPISSSICHLTNESDGHTTSLYGIGFGPFIITNKHLFRRNNGTLVVQSLHGVFKVKDTTTLQQHLVDGRDMIIIRMPKDFPPFPQKLKFREPQREERICLVTTNFQTKSMSSMVSDTSCTFPSGDGIFWKHWIQTKDGQCGSPLVSTRDGFIVGIHSASNFTNTNNYFTSVPKNFMELLTNQEAQQWVSGWRLNADSVLWGGHKVCMVKPEEPFQPVKEATQL [F218C],0.0712,0.0553,0.0331,0.0534,–,–,–
MGESLFKGPRDYNPISSSICHLTNESDGHTTSLYGIGFGPFIITNKHLFRRNNGTLVVQSLHGVFKVKDTTTLQQHLVDGRDMIIIRMPKDFPPFPQKLKFREPQREERICLVTTNFQTKSMSSMVSDTSCTFPSGDGIFWKHWIQTKDGQCGSPLVSTRDGFIVGIHSASNFTNTNNYFTSVPKNFMELLTNQEAQQWVSGWRLNADSVLWGGHKVFMFKPEEPFQPVKEATQL [V220F],0.0553,–,0.0657,0.01,0.0574,0.0581,–
MGESLFKGPRDYNPISSSICHLTNESDGHTTSLYGIGFGPFIITNKHLFRRNNGTLVVQSLHGVFKVKDTTTLQQHLVDGRDMIIIRMPKDFPPFPQKLKFREPQREERICLVTTNFQTKSMSSMVSDTSCTFPSGDGIFWKHWIQTKDGQCGSPLVSTRDGFIVGIHSASNFTNTNNYFTSVPKNFMELLTNQEAQQWVSGWRLNADSVLWGGHKVFMVKPEEPFQPVKEAAQL [T233A],0.0811,–,0.0643,–,–,–,–
MGESLFKGPRDYNPISSSICHLTNESDGHTTSLYGIGFGPFIITNKHLFRRNNGTLVVQSLHGVFKVKDTTTLQQHLVDGRDMIIIRMPKDFPPFPQKLKFREPQREERICLVTTNFQTKSMSSMVSDTSCTFPSGDGIFWKHWIQTKDGQCGSPLVSTRDGFIVGIHSASNFTNTNNYFTSVPKNFMELLTNQEAQQWVSGWRLNADSVLWGGHKVFMVKPEEPFQPVKEAFQL [T233F],0.0937,–,0.0657,–,0.089,0.059,0.0668
MGESLFKGPRDYNPISSSICHLTNESDGHTTSLYGIGFGPFIITNKHLFRRNNGTLVVQSLHGVFKVKDTTTLQQHLVDGRDMIIIRMPKDFPPFPQKLKFREPQREERICLVTTNFQTKSMSSMVSDTSCTFPSGDGIFWKHWIQTKDGQCGSPLVSTRDGFIVGIHSASNFTNTNNYFTSVPKNFMELLTNQEAQQWVSGWRLNADSVLWGGHKVFMVKPEEPFQPVKEAVQL [T233V],–,–,0.0526,0.0076,0.0693,–,–
MGESLCKGPRDYNPISSSICHLTNESDGHTTSLYGIGFGPFIITNKHLFRRNNGTLVVQSLHGVFKVKDTTTLQQHLVDGRDMIIIRMPKDFPPFPQKLKFREPQREERICLVTTNFQTKSMSSMVSDTSCTFPSGDGIFWKHWIQTKDGQCGSPLVSTRDGFIVGIHSASNFTNTNNYFTSVPKNFMELLTNQEAQQWVSGWRLNADSVLWGGHKVFMVKPEEPFQPVKEATQL [F6C],–,0.0536,–,–,0.061,–,–
MGESLFKGPRDYNPISSSICHLTNESDGHTTSLYGIGFGPFIITNKHLFRRNNGTLVVQILHGVFKVKDTTTLQQHLVDGRDMIIIRMPKDFPPFPQKLKFREPQREERICLVTTNFQTKSMSSMVSDTSCTFPSGDGIFWKHWIQTKDGQCGSPLVSTRDGFIVGIHSASNFTNTNNYFTSVPKNFMELLTNQEAQQWVSGWRLNADSVLWGGHKVFMVKPEEPFQPVKEATQL [S60I],–,0.0595,–,–,–,–,–
